Experimental data published in the supplement of paper PMC9927326.

Assays:
Experiment in all cases: CLSI broth microdilution.
[1] = compound: CCC(C)n1ncn(-c2ccc(N3CCN(c4ccc(OCC5COC(Cn6cncn6)(c6ccc(Cl)cc6Cl)O5)cc4)CC3)cc2)c1=O [itraconazole]
[2] = compound: CCCCCOc1ccc(-c2cc(-c3ccc(C(=O)N[C@H]4C[C@@H](O)[C@@H](O)NC(=O)[C@@H]5[C@@H](O)[C@@H](C)CN5C(=O)[C@H]([C@H](O)CC(N)=O)NC(=O)[C@H]([C@H](O)[C@@H](O)c5ccc(O)c(OS(=O)(=O)O)c5)NC(=O)[C@@H]5C[C@@H](O)CN5C(=O)[C@H]([C@@H](C)O)NC4=O)cc3)no2)cc1 [micafungin]
[3] = compound: CCCCCOc1ccc(-c2ccc(-c3ccc(C(=O)N[C@H]4C[C@@H](O)[C@@H](O)NC(=O)[C@@H]5[C@@H](O)[C@@H](C)CN5C(=O)[C@H]([C@@H](C)O)NC(=O)[C@H]([C@H](O)[C@@H](O)c5ccc(O)cc5)NC(=O)[C@@H]5C[C@@H](O)CN5C(=O)[C@H]([C@@H](C)O)NC4=O)cc3)cc2)cc1 [anidulafungin]
[4] = compound: CC[C@@H]([C@H](C)O)n1ncn(-c2ccc(N3CCN(c4ccc(OC[C@@H]5CO[C@@](Cn6cncn6)(c6ccc(F)cc6F)C5)cc4)CC3)cc2)c1=O [posaconazole]
[5] = compound: CC[C@H](C)C[C@H](C)CCCCCCCCC(=O)N[C@H]1C[C@@H](O)[C@@H](NCCN)NC(=O)[C@@H]2[C@@H](O)CCN2C(=O)[C@H]([C@H](O)CCN)NC(=O)[C@H]([C@H](O)[C@@H](O)c2ccc(O)cc2)NC(=O)[C@@H]2C[C@@H](O)CN2C(=O)[C@H]([C@@H](C)O)NC1=O [caspofungin]
[6] = compound: C[C@@H](c1ncncc1F)[C@](O)(Cn1cncn1)c1ccc(F)cc1F [voriconazole]
[7] = compound: C[C@@H]1[C@H](O)[C@@H](C)/C=C/C=C/C=C/C=C/C=C/C=C/C=C/[C@H](O[C@@H]2O[C@H](C)[C@@H](O)[C@H](N)[C@@H]2O)C[C@@H]2O[C@](O)(C[C@@H](O)C[C@@H](O)[C@H](O)CC[C@@H](O)C[C@@H](O)CC(=O)O[C@H]1C)C[C@H](O)[C@H]2C(=O)O [amphotericin B]
[8] = compound: Nc1[nH]c(=O)ncc1F [flucytosine]
[9] = compound: OC(Cn1cncn1)(Cn1cncn1)c1ccc(F)cc1F [fluconazole]

Candida albicans isolate 58 (Erg11p: WT, Fur1p: WT, Tac1p: WT)
MIC [1]: ≤ 0.015 mg/L [S] | MIC [2]: 0.015 mg/L [S] | MIC [3]: ≤ 0.015 mg/L [S] | MIC [4]: ≤ 0.008 mg/L [S] | MIC [5]: 0.03 mg/L [S] | MIC [6]: ≤ 0.008 mg/L [S] | MIC [7]: 0.25 mg/L [S] | MIC [8]: ≤ 0.06 mg/L [S] | MIC [9]: 0.25 mg/L [S]

Candida albicans isolate 4 (Erg11p: V488I,E266D, Fur1p: WT, Tac1p: N896S,I895T)
MIC [1]: 0.06 mg/L [S] | MIC [2]: ≤ 0.008 mg/L [S] | MIC [3]: 0.06 mg/L [S] | MIC [4]: 0.015 mg/L [S] | MIC [5]: 0.03 mg/L [S] | MIC [6]: ≤ 0.008 mg/L [S] | MIC [7]: 0.25 mg/L [S] | MIC [8]: ≤ 0.06 mg/L [S] | MIC [9]: 0.5 mg/L [S]

Candida albicans isolate 188 (Erg11p: WT, Fur1p: WT, Tac1p: I558V,A377V,F189S,N174D,M170I,K87N)
MIC [1]: 0.06 mg/L [S] | MIC [2]: 0.015 mg/L [S] | MIC [3]: ≤ 0.015 mg/L [S] | MIC [4]: 0.03 mg/L [S] | MIC [5]: 0.03 mg/L [S] | MIC [6]: ≤ 0.008 mg/L [S] | MIC [7]: 0.5 mg/L [S] | MIC [8]: ≤ 0.06 mg/L [S] | MIC [9]: 0.5 mg/L [S]

Candida albicans isolate 335 (Erg11p: WT, Fur1p: WT, Tac1p: I558V,A377V,F189S,N174D,M170I,K87N)
MIC [1]: ≤ 0.015 mg/L [S] | MIC [2]: 0.015 mg/L [S] | MIC [3]: ≤ 0.015 mg/L [S] | MIC [4]: 0.015 mg/L [S] | MIC [5]: 0.03 mg/L [S] | MIC [6]: ≤ 0.008 mg/L [S] | MIC [7]: 0.25 mg/L [S] | MIC [8]: ≤ 0.06 mg/L [S] | MIC [9]: 0.25 mg/L [S]

Candida albicans isolate 47 (Erg11p: V437I,E266D, Fur1p: WT, Tac1p: S937L,I895T,L695F,I558V,F189S,L131I)
MIC [1]: 0.03 mg/L [S] | MIC [2]: 0.015 mg/L [S] | MIC [3]: 0.06 mg/L [S] | MIC [4]: 0.015 mg/L [S] | MIC [5]: 0.03 mg/L [S] | MIC [6]: 0.015 mg/L [S] | MIC [7]: 0.5 mg/L [S] | MIC [8]: ≤ 0.06 mg/L [S] | MIC [9]: 1 mg/L [S]

Candida albicans isolate 179 (Erg11p: V488I,E266D, Fur1p: WT, Tac1p: N896S)
MIC [1]: 0.12 mg/L [S] | MIC [2]: 0.015 mg/L [S] | MIC [3]: ≤ 0.015 mg/L [S] | MIC [4]: 0.06 mg/L [S] | MIC [5]: 0.06 mg/L [S] | MIC [6]: 0.03 mg/L [S] | MIC [7]: 0.5 mg/L [S] | MIC [8]: ≤ 0.06 mg/L [S] | MIC [9]: 2 mg/L [S]

Candida albicans isolate 35 (Erg11p: E266D, Fur1p: WT, Tac1p: T885K,I558V,A430V,A377V,F189S,N174D,M170I,M170V,K87N)
MIC [1]: ≤ 0.015 mg/L [S] | MIC [2]: ≤ 0.008 mg/L [S] | MIC [3]: 0.12 mg/L [S] | MIC [4]: 0.015 mg/L [S] | MIC [5]: 0.03 mg/L [S] | MIC [6]: ≤ 0.008 mg/L [S] | MIC [7]: 0.5 mg/L [S] | MIC [8]: ≤ 0.06 mg/L [S] | MIC [9]: 0.25 mg/L [S]

Candida albicans isolate 33 (Erg11p: WT, Fur1p: WT, Tac1p: I558V,A377V,F189S,N174D,M170I,K87N)
MIC [1]: ≤ 0.015 mg/L [S] | MIC [2]: ≤ 0.008 mg/L [S] | MIC [3]: 0.12 mg/L [S] | MIC [4]: 0.015 mg/L [S] | MIC [5]: 0.03 mg/L [S] | MIC [6]: ≤ 0.008 mg/L [S] | MIC [7]: 0.5 mg/L [S] | MIC [8]: ≤ 0.06 mg/L [S] | MIC [9]: 0.25 mg/L [S]

Candida albicans isolate 334 (Erg11p: G448E,Y132H, Fur1p: R101C, Tac1p: WT)
MIC [1]: 0.12 mg/L [S] | MIC [2]: 0.015 mg/L [S] | MIC [3]: ≤ 0.015 mg/L [S] | MIC [4]: 0.03 mg/L [S] | MIC [5]: ≤ 0.008 mg/L [S] | MIC [6]: 0.5 µg/mL | MIC [7]: 0.5 mg/L [S] | MIC [8]: 0.5 mg/L [S] | MIC [9]: 4 µg/mL

Candida albicans isolate 2 (Erg11p: V437I,E266D, Fur1p: WT, Tac1p: S937L,I895T,L695F,I558V,F189S,L131I)
MIC [1]: 0.03 mg/L [S] | MIC [2]: ≤ 0.008 mg/L [S] | MIC [3]: 0.03 mg/L [S] | MIC [4]: 0.015 mg/L [S] | MIC [5]: 0.03 mg/L [S] | MIC [6]: ≤ 0.008 mg/L [S] | MIC [7]: 0.25 mg/L [S] | MIC [8]: ≤ 0.06 mg/L [S] | MIC [9]: 0.25 mg/L [S]

Candida albicans isolate 199 (Erg11p: WT, Fur1p: WT, Tac1p: I558V,A377V,F189S,N174D,M170I,K87N)
MIC [1]: ≤ 0.015 mg/L [S] | MIC [2]: ≤ 0.008 mg/L [S] | MIC [3]: 0.06 mg/L [S] | MIC [4]: 0.015 mg/L [S] | MIC [5]: 0.03 mg/L [S] | MIC [6]: ≤ 0.008 mg/L [S] | MIC [7]: 0.5 mg/L [S] | MIC [8]: ≤ 0.06 mg/L [S] | MIC [9]: 0.25 mg/L [S]

Candida albicans isolate 311 (Erg11p: E266D, Fur1p: WT, Tac1p: C908Y,A377V,N174D,M170I,I109N,K87N)
MIC [1]: 0.03 mg/L [S] | MIC [2]: 0.015 mg/L [S] | MIC [3]: 0.12 mg/L [S] | MIC [4]: 0.015 mg/L [S] | MIC [5]: 0.06 mg/L [S] | MIC [6]: ≤ 0.008 mg/L [S] | MIC [7]: 0.25 mg/L [S] | MIC [8]: ≤ 0.06 mg/L [S] | MIC [9]: 0.25 mg/L [S]

Candida albicans isolate 338 (Erg11p: WT, Fur1p: WT, Tac1p: N896S)
MIC [1]: ≤ 0.015 mg/L [S] | MIC [2]: 0.015 mg/L [S] | MIC [3]: ≤ 0.015 mg/L [S] | MIC [4]: 0.015 mg/L [S] | MIC [5]: 0.03 mg/L [S] | MIC [6]: ≤ 0.008 mg/L [S] | MIC [7]: 0.25 mg/L [S] | MIC [8]: ≤ 0.06 mg/L [S] | MIC [9]: 0.25 mg/L [S]

Candida albicans isolate 219 (Erg11p: V437I, Fur1p: WT, Tac1p: N896S,A377V,F189S,N174D,M170I,K87N)
MIC [1]: 0.03 mg/L [S] | MIC [2]: 0.015 mg/L [S] | MIC [3]: 0.06 mg/L [S] | MIC [4]: 0.015 mg/L [S] | MIC [5]: 0.03 mg/L [S] | MIC [6]: ≤ 0.008 mg/L [S] | MIC [7]: 0.5 mg/L [S] | MIC [8]: ≤ 0.06 mg/L [S] | MIC [9]: 0.5 mg/L [S]

Candida albicans isolate 23 (Erg11p: E266D, Fur1p: R101C, Tac1p: T885K,I558V,A430V,A377V,F189S,N174D,M170I,M170V,K87N)
MIC [1]: ≤ 0.015 mg/L [S] | MIC [2]: 0.015 mg/L [S] | MIC [3]: ≤ 0.015 mg/L [S] | MIC [4]: 0.015 mg/L [S] | MIC [5]: 0.03 mg/L [S] | MIC [6]: ≤ 0.008 mg/L [S] | MIC [7]: 0.5 mg/L [S] | MIC [8]: ≤ 0.06 mg/L [S] | MIC [9]: 0.25 mg/L [S]

Candida albicans isolate 146 (Erg11p: D153E, Fur1p: WT, Tac1p: I558V,A377V,M170V)
MIC [1]: 0.06 mg/L [S] | MIC [2]: 0.015 mg/L [S] | MIC [3]: ≤ 0.015 mg/L [S] | MIC [4]: 0.06 mg/L [S] | MIC [5]: 0.06 mg/L [S] | MIC [6]: ≤ 0.008 mg/L [S] | MIC [7]: 0.5 mg/L [S] | MIC [8]: ≤ 0.06 mg/L [S] | MIC [9]: 0.5 mg/L [S]

MIC of clinical C. albicans isolates, CLSI broth microdilution (ranges and time not stated); higher = less susceptible. Call: susceptible or wild type [S] / resistant or non-wild type [R] by CLSI breakpoints or epidemiological cut-offs; intermediate and dose-dependent carry no call here (the paper groups them with resistant). '<=' and '>=' mark each drug's lowest and highest value, inferred; the source prints them plain. Isolates are numbered anew.
